{
  "source": "paper PMC4336329",
  "about": "(PLoS ONE, 2015)",
  "note": "The whole screen tested about 310,000 compounds, of which about 14,000 (4.5%) showed an effect of 50% or more. Effects have a minus sign here. The list shows a part of the results.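 Also: peak tail current of the secondary pulse compared with the same well before compound.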",
  "data": [
    {"molecular_target": "human ether-à-go-go-related gene (hERG) potassium channel (human, UniProt Q12809)", "sequence (Q12809 whole entry, looked up)": "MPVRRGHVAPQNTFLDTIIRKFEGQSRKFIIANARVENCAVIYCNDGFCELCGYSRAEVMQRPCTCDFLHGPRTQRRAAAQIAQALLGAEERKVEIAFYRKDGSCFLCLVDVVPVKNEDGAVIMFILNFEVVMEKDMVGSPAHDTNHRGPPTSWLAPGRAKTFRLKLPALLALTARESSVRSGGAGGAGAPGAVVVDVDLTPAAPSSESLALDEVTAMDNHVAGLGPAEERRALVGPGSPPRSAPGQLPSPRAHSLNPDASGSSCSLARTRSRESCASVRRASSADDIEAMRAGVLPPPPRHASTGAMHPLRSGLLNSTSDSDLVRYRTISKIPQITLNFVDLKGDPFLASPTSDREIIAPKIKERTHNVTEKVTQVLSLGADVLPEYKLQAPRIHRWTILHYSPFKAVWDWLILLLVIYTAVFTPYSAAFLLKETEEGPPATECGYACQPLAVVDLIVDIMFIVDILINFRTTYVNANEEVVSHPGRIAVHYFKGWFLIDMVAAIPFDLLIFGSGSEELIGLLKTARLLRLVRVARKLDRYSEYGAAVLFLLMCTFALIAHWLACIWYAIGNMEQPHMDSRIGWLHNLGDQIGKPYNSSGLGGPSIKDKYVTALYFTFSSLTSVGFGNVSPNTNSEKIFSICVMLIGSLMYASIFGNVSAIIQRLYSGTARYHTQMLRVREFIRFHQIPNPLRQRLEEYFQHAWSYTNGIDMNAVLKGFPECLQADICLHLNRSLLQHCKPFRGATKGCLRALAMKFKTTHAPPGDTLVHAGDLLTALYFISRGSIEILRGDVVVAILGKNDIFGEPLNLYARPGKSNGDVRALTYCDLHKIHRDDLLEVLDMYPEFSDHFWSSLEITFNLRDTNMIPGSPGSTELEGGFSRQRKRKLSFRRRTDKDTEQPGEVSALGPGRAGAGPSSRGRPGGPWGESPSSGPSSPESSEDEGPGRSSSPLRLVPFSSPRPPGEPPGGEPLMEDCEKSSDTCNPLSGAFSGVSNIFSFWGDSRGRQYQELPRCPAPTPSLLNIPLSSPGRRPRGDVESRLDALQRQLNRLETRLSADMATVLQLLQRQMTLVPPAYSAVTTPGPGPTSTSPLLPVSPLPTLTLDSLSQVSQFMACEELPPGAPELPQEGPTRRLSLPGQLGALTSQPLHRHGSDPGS", "test": "primary screen, population patch clamp on CHO cells stably expressing hERG", "units": {"hERG current change (%, negative = inhibition) at 10uM": "%"}, "values": [
      {"compound": "Cc1c(Cl)cccc1NC(=S)NNc1ncc(C(F)(F)F)cc1Cl", "hERG current change (%, negative = inhibition) at 10uM": 11.7},
      {"compound": "OCCC1CN(Cc2ccccn2)CCN1C1CCCC1", "note": "(stereo not drawn)", "hERG current change (%, negative = inhibition) at 10uM": 9.91},
      {"compound": "O=C(N/N=C/c1cccc(Br)c1)C1CC(=O)N(c2ccccc2)C1", "note": "(stereo not drawn)", "hERG current change (%, negative = inhibition) at 10uM": 7.68},
      {"compound": "COc1ccc(NC(=O)CSc2ccc(-c3ccco3)nn2)cc1", "hERG current change (%, negative = inhibition) at 10uM": 6.81},
      {"compound": "COc1cccc(/C(C)=N/NC(=O)c2ccc(N(C)C)cc2)c1", "hERG current change (%, negative = inhibition) at 10uM": 3.12},
      {"compound": "Cc1ccc(C(=O)Nc2nc(-c3ccccn3)cs2)cc1S(=O)(=O)N1CCOCC1", "hERG current change (%, negative = inhibition) at 10uM": -26.7},
      {"compound": "CCOC(=O)c1sc(C)c2c(=O)n(Cc3ccc(Cl)cc3)c(C)nc12", "hERG current change (%, negative = inhibition) at 10uM": -2.13},
      {"compound": "COC(=O)C[N+](C)(C)C/C=C\\c1ccccc1.[Br-]", "hERG current change (%, negative = inhibition) at 10uM": 38.9},
      {"compound": "CCN1CCN(C(=O)c2ccc3c(=O)n(CCc4ccccc4)c(=O)[nH]c3c2)CC1", "hERG current change (%, negative = inhibition) at 10uM": -26.2},
      {"compound": "CC1=NN(c2ccccc2)C(=O)C1C(=O)C(=O)Nc1ccc(F)cc1", "note": "(stereo not drawn)", "hERG current change (%, negative = inhibition) at 10uM": 42.7},
      {"compound": "CCc1ccc(NC(=O)CC2C(=O)N(c3cccc(OC)c3)C(=O)N2CCOC)cc1", "note": "(stereo not drawn)", "hERG current change (%, negative = inhibition) at 10uM": 5.8},
      {"compound": "O=C(NC(=S)Nc1nc(-c2ccccc2)cs1)c1cncc(Br)c1", "hERG current change (%, negative = inhibition) at 10uM": 5.05},
      {"compound": "O=C(COC(=O)c1n[nH]c2ccccc12)NC(=O)NC1CCCCC1", "hERG current change (%, negative = inhibition) at 10uM": 3.46},
      {"compound": "N#Cc1cccc(NC(=O)N2CCC(c3nc4c(nnn4Cc4cccc(Cl)c4)c(=O)[nH]3)CC2)c1", "hERG current change (%, negative = inhibition) at 10uM": 12},
      {"compound": "S=C(NC1CCCCC1)NC1CC2CCC(C1)N2Cc1ccccc1", "note": "(stereo not drawn)", "hERG current change (%, negative = inhibition) at 10uM": -33.4},
      {"compound": "Cc1cccnc1NC(=O)CCc1c[nH]c2ccccc12", "hERG current change (%, negative = inhibition) at 10uM": 2.86},
      {"compound": "Oc1ccc(-c2nnc(Nc3cccc(O)c3)c3ccccc23)cc1", "hERG current change (%, negative = inhibition) at 10uM": -7.99},
      {"compound": "Cn1c(C(=O)N2CCN(c3ccccn3)CC2)cc2ccccc21", "hERG current change (%, negative = inhibition) at 10uM": -18.5},
      {"compound": "CCC1(c2ccc(Cl)cc2)NC(=S)N(c2ccc(C)c(C)c2)N1", "note": "(stereo not drawn)", "hERG current change (%, negative = inhibition) at 10uM": 5.54},
      {"compound": "CCOc1cc(/C=N/NC(=O)c2ccccc2OCc2ccc(F)cc2)ccc1O", "hERG current change (%, negative = inhibition) at 10uM": -2.93},
      {"compound": "O=C(NCc1ccccc1)C1CCN(S(=O)(=O)c2ccc(N3CCCC3=O)cc2)CC1", "hERG current change (%, negative = inhibition) at 10uM": 0.265},
      {"compound": "CN(C(=O)c1ccc(Cl)c([N+](=O)[O-])c1)C1(C)CCS(=O)(=O)C1", "note": "(stereo not drawn)", "hERG current change (%, negative = inhibition) at 10uM": -10.9},
      {"compound": "O=C(NCc1cccs1)C(=O)c1cn(CC(=O)N2CCOCC2)c2ccccc12", "hERG current change (%, negative = inhibition) at 10uM": 19.3},
      {"compound": "CC(C)(C)n1nnnc1C(c1ccncc1)N1CCN(C2CCCCC2)CC1", "note": "(stereo not drawn)", "hERG current change (%, negative = inhibition) at 10uM": -4.67},
      {"compound": "CCOC(=O)N1CCN(C(=O)CSc2nc3ccccc3c(=O)n2-c2ccccc2)CC1", "hERG current change (%, negative = inhibition) at 10uM": -28.4},
      {"compound": "CCN(Cc1cc(OC)c(OC)c(OC)c1)C(=S)Nc1cccc(SC)c1", "hERG current change (%, negative = inhibition) at 10uM": -17.7},
      {"compound": "CC(C)CN(C(=O)CSc1ncnc2ccccc12)C1CCS(=O)(=O)C1", "note": "(stereo not drawn)", "hERG current change (%, negative = inhibition) at 10uM": -5.62},
      {"compound": "COc1ccc(N2C(=O)C(F)(F)C2c2cccc(F)c2)cc1", "note": "(stereo not drawn)", "hERG current change (%, negative = inhibition) at 10uM": 17.3},
      {"compound": "O=C(C1CCC1)N1CCN(c2ccnc3cc(Cl)ccc23)CC1", "hERG current change (%, negative = inhibition) at 10uM": -71.4},
      {"compound": "CSc1ncccc1C(=O)N1CCCC(N2CCN(c3ccccc3F)CC2)C1", "note": "(stereo not drawn)", "hERG current change (%, negative = inhibition) at 10uM": -12.4},
      {"compound": "Clc1ccc(CSc2nnc(-c3ccc4c(c3)OCO4)o2)cc1", "hERG current change (%, negative = inhibition) at 10uM": 4.16},
      {"compound": "O=S(=O)(c1ccccc1)c1cnc(-c2cccnc2)nc1-c1ccc(Cl)c(Cl)c1", "hERG current change (%, negative = inhibition) at 10uM": -2.3},
      {"compound": "O=C(Nc1ccc(S(=O)(=O)Nc2nccs2)cc1)C(F)(F)F", "hERG current change (%, negative = inhibition) at 10uM": 5.9},
      {"compound": "Cc1ccc(C(=O)Nc2ccc(Cl)cc2C(=O)c2ccccc2)cc1", "hERG current change (%, negative = inhibition) at 10uM": 17.1},
      {"compound": "COc1cccc(CNC(=O)CCS(=O)(=O)c2ccc3c(c2)CC(C)N3C(=O)C2CC2)c1", "note": "(stereo not drawn)", "hERG current change (%, negative = inhibition) at 10uM": -32.4},
      {"compound": "COc1cccc(N(CC(=O)NCc2ccco2)C(=O)CCC(=O)Nc2nccs2)c1", "hERG current change (%, negative = inhibition) at 10uM": 1.6},
      {"compound": "COc1ccc(-n2ccn(CC(=O)Nc3ccccc3OC)c(=O)c2=O)cc1", "hERG current change (%, negative = inhibition) at 10uM": 10.9},
      {"compound": "Cc1ccc(-n2nc(C)c3c2NC(=O)CSC3c2ccc3c(c2)OCO3)cc1", "note": "(stereo not drawn)", "hERG current change (%, negative = inhibition) at 10uM": 5.05},
      {"compound": "COc1ccc(CCNC(=O)CCCn2c(SCC(N)=O)nc3cc4c(cc3c2=O)OCO4)cc1OC", "hERG current change (%, negative = inhibition) at 10uM": 10.3},
      {"compound": "CCOC(=O)C1Cc2ccccc2CN1.Cl", "note": "(stereo not drawn)", "hERG current change (%, negative = inhibition) at 10uM": 1.73},
      {"compound": "COc1ccc(NC(=O)COc2ccccc2)cc1NC(=O)c1ccco1", "hERG current change (%, negative = inhibition) at 10uM": -30.8},
      {"compound": "O=C(Nc1cccc2ccccc12)c1cccc([N+](=O)[O-])c1", "hERG current change (%, negative = inhibition) at 10uM": 11.6},
      {"compound": "Cc1nc(-c2ccccc2)sc1C(=O)CSc1ccccc1", "hERG current change (%, negative = inhibition) at 10uM": -10.8},
      {"compound": "O=C(CCN1C(=O)C2C3C=CC(C4CC34)C2C1=O)Nc1ccc(Cl)cc1O", "note": "(stereo not drawn)", "hERG current change (%, negative = inhibition) at 10uM": 2.41},
      {"compound": "O=C(CN(Cc1ccco1)C(=O)Cn1nnc(-c2ccc(F)cc2)n1)NC1CCCC1", "hERG current change (%, negative = inhibition) at 10uM": -29.3},
      {"compound": "CC(OC(=O)c1ccc2c(c1)S(=O)(=O)c1ccccc1C2=O)C(N)=O", "note": "(stereo not drawn)", "hERG current change (%, negative = inhibition) at 10uM": 16.7},
      {"compound": "C/C(=N\\NC(=O)c1ccc(O)cc1)c1cccc(NC(=O)c2ccc(Cl)cc2)c1", "hERG current change (%, negative = inhibition) at 10uM": 17.7},
      {"compound": "Fc1ccc(/C=N/N2CCN(Cc3ccccc3)CC2)cc1", "hERG current change (%, negative = inhibition) at 10uM": -22.1},
      {"compound": "O=C(C1CCN(c2ncnc3c2nc2n3CCCCC2)CC1)N1CCN(c2ccccc2F)CC1", "hERG current change (%, negative = inhibition) at 10uM": -33.1},
      {"compound": "Cc1nonc1CN(C)C(=O)c1ccc(OC2CCN(Cc3ccccn3)CC2)cc1", "hERG current change (%, negative = inhibition) at 10uM": -37.5},
      {"compound": "CC(C)N1CC(O)=C(c2nc3ccccc3c(=O)[nH]2)C1=N", "hERG current change (%, negative = inhibition) at 10uM": -2.74},
      {"compound": "O=C(Nc1cccc(F)c1)C1CCN(C(=O)N2CCOc3ccccc32)CC1", "hERG current change (%, negative = inhibition) at 10uM": -35.9},
      {"compound": "CCSc1nnc(Cc2cc(=O)[nH]c(=O)[nH]2)n1-c1ccc(Cl)cc1", "hERG current change (%, negative = inhibition) at 10uM": 6.24},
      {"compound": "O=C(COc1ccc2ccccc2c1Br)Nc1ccncc1", "hERG current change (%, negative = inhibition) at 10uM": 19.5}
    ]}
  ]
}
